{"source": "PubChem BioAssay AID686978", "about": "(National Center for Advancing Translational Sciences (NCATS), 2013)", "note": "Several values for one entry are separate records, joined by “and”; a condition that tells them apart may be missing. Equal values may be shown once. Out of some 420,000 compounds screened, about 64,000 (15%) were called active. This list was built around the results that the source calls inconclusive (neither active nor inactive); the mix of calls is not that of the screen. Calls come from the whole dose curve; as a rule, active = well fitted inhibition curve with a large enough effect; inconclusive = small, poorly fitted or top-dose-only effect; inactive = flat fitted curve, though single readings scatter. Potencies of inconclusive entries are left out as doubtful fits. % is set by controls: 0 for no effect and ±100 for the full control effect; potency is the fitted concentration of half-maximal effect; tags give direction and shape of the fitted curve."}
{"assay": "qHTS for Inhibitors of human tyrosyl-DNA phosphodiesterase 1 (TDP1): qHTS in cells in absence of CPT; note: nearly all actives have a fitted effect of over 55% in size", "details": "DT40 Tdp1-/- hTDP1 cells, no CPT, ATP luminescence, 48 h; activity change, negative = growth inhibition: at 46.2 µM (top of the series)", "method_in_brief": "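Cells were dispensed at 400 per well, compounds added by pin tool, plates incubated ≥48 hr at 37 °C, then CellTiter-Glo added for 30 min at room temperature before luminescence reading. Line: DT40 Tdp1-/- complemented with hTDP1; camptothecin omitted.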"}
{"smiles": "CCc1ccc(NC(=O)CCn2c(=O)c3cccn3c3ccccc32)cc1", "Potency": "active: 11.6 µM and active: 18.4 µM"}
{"smiles": "CCOc1ccc(S(=O)(=O)NCCC(=O)NC(C)CCc2ccccc2)cc1", "note": "(stereo unspecified)", "activity change, negative = growth inhibition": "inconclusive: -34.1% [inhibitor]"}
{"smiles": "CC(NC(=O)c1noc2c1CCCC2)c1ccccc1", "note": "(stereo unspecified)", "Potency": "inconclusive [inhibitor, partial curve, poor fit]"}
{"smiles": "O=S(=O)(c1ccc(=S)[nH]c1)N1CCCC1", "activity change, negative = growth inhibition": "inconclusive: -33.2% [inhibitor]"}
{"smiles": "CCO[C@@H]1OC(C(=O)N2CCN(Cc3ccc4c(c3)OCO4)CC2)=C[C@H](c2coc3ccccc3c2=O)[C@H]1CCCO", "Potency": "active: 18.4 µM"}
{"smiles": "COc1ccc(CCNC(=O)CCCn2c(=O)c3cccn3c3ccccc32)cc1OC", "Potency": "active: 13 µM"}
{"smiles": "C(=C\\c1ccccc1)/CN1CCN(C(c2ccccc2)c2nnnn2-c2ccc3c(c2)OCCO3)CC1", "note": "(stereo unspecified)", "Potency": "inconclusive [inhibitor, single point]"}
{"smiles": "Cc1ccc(C(=O)Nc2cc(C(C)C)c(O)c(C(C)C)c2)cc1", "Potency": "inconclusive [inhibitor, single point]"}
{"smiles": "COc1ccc(/C=N/NC(=O)c2cccc(Br)c2)cc1CSc1ccccn1", "Potency": "inconclusive [inhibitor, partial curve]"}
{"smiles": "COc1ccccc1NS(=O)(=O)c1cccc(C(=O)N2CCN(C(=O)c3ccco3)CC2)c1", "Potency": "inactive"}
{"smiles": "COc1ccccc1Oc1ccc(-c2cnc3ccccc3n2)cc1[N+](=O)[O-]", "Potency": "active: 7.31 µM"}
{"smiles": "CSc1ccccc1C(=O)N1CCCC(CCC(=O)NCc2ccc(F)c(F)c2)C1", "note": "(stereo unspecified)", "Potency": "inconclusive [inhibitor, single point]"}
{"smiles": "Cc1ccccc1N(CC(=O)N/N=C/c1ccc(N(C)C)cc1)C(=O)c1ccccc1", "Potency": "inconclusive [inhibitor, full curve, poor fit]"}
{"smiles": "CCC(Cc1ccccc1)NC(=O)CN1C(=O)COc2ccc(S(=O)(=O)N3CCCCCC3)cc21", "note": "(stereo unspecified)", "activity change, negative = growth inhibition": "inconclusive: -33.8% [inhibitor]"}
{"smiles": "COc1ccccc1N1CCN(C(=O)C2CCN(S(=O)(=O)Cc3ccccc3)CC2)CC1", "Potency": "inconclusive [inhibitor, single point]"}
{"smiles": "O=C(N/N=C/c1cc(Cl)ccc1O)c1cccnc1", "Potency": "active: 1.03 µM"}
{"smiles": "O=C(Cc1cccs1)N/N=C/C=C/c1ccccc1[N+](=O)[O-]", "Potency": "inactive"}
{"smiles": "O=C(OCc1nnc(-c2ccccc2)o1)c1cc(S(=O)(=O)N2CCOCC2)c(Cl)cc1Cl", "Potency": "active: 7.31 µM"}
{"smiles": "COc1ccc(CCC(=O)OCc2csc(CC(=O)Nc3ccccc3C)n2)cc1", "Potency": "inactive"}
{"smiles": "CCOC(=O)N1CCN(C(=O)CN(Cc2ccc(Cl)cc2)S(=O)(=O)c2ccccc2)CC1", "Potency": "active: 20.6 µM"}
{"smiles": "CCCCN(C)c1c(C)nc2ccc(C(=O)N(C)CCN(C)C)cn12", "Potency": "inactive"}
{"smiles": "CN(C)C(=O)CSc1nc2ccc(C(=O)c3ccccc3)cc2[nH]1", "Potency": "inconclusive [inhibitor, single point]"}
{"smiles": "CN(C)S(=O)(=O)c1cccc(NC(=O)c2ccc(OC(F)(F)F)cc2)c1", "Potency": "inconclusive [inhibitor, single point]"}
{"smiles": "Cc1ccc(/C=C2\\SC(=S)N(CCCC(=O)Nc3ccc(O)cc3)C2=O)cc1", "Potency": "inactive"}
{"smiles": "CC(C)CN(CC(C)C)c1ccc(/C=C/c2nc3ccccc3s2)cc1", "Potency": "active: 3.55 µM"}
{"smiles": "CC1CN(c2nc3c(c(=O)n(Cc4ccc(Cl)cc4)c(=O)n3C)n2C)CC(C)O1", "note": "(stereo unspecified)", "Potency": "active: 25.9 µM"}
{"smiles": "CCOc1ccc(S(=O)(=O)Nc2cccc(C(=O)N3CCN(C(C)=O)CC3)c2)cc1", "Potency": "inactive"}
{"smiles": "COc1ccc(NC(=O)CCCN2C(=O)C(c3ccccc3)Oc3cccnc32)c(OC)c1", "note": "(stereo unspecified)", "Potency": "active: 23.1 µM"}
{"smiles": "O=C(COc1ccccc1F)NC1CC1", "Potency": "inactive"}
{"smiles": "CCc1ccc(N2CC(C(=O)Nc3cccc(S(=O)(=O)N4CCCC4)c3)CC2=O)cc1", "note": "(stereo unspecified)", "Potency": "inconclusive [inhibitor, single point]"}
{"smiles": "O=C(Nc1ccc(OC(F)(F)F)cc1)c1cc(S(=O)(=O)N2CCCCC2)ccc1N1CCOCC1", "Potency": "inconclusive [inhibitor, single point]"}
{"smiles": "Cc1ccc(Cn2nc3c(cc2=O)CCc2ccccc2-3)cc1", "Potency": "inconclusive [inhibitor, single point]"}
{"smiles": "CCN(CC)S(=O)(=O)c1ccc(OC(C)C)c(NC(=O)C2=COCCO2)c1", "Potency": "inconclusive [inhibitor, single point]"}
{"smiles": "CSc1ccc(Cl)c(C(=O)OCC(=O)Nc2ccccc2OC(F)F)c1", "Potency": "inactive"}
{"smiles": "Cc1cc2oc(C(=O)Nc3nonc3C)c(C)c2cc1C", "Potency": "inconclusive [inhibitor, partial curve, poor fit]"}
{"smiles": "Cc1ccc(NC(=O)CC(=O)c2ccc([N+](=O)[O-])cc2)cc1S(=O)(=O)Nc1cccc(Cl)c1", "Potency": "inactive"}
{"smiles": "COc1ccc(N2CCN(C(=O)c3ccc(CNS(=O)(=O)c4cccc(OC)c4)cc3)CC2)cc1", "Potency": "active: 23.1 µM"}
{"smiles": "CCOC(=O)c1c(/N=C/N(C)C)sc2c1CCC2", "activity change, negative = growth inhibition": "inconclusive: -37.7% [inhibitor]"}
{"smiles": "Cc1ccc(C(C(=O)NC(C)(C)C)N(Cc2ccco2)C(=O)Cn2nnc(-c3cccs3)n2)cc1", "note": "(stereo unspecified)", "Potency": "inconclusive [inhibitor, single point]"}
{"smiles": "Clc1ccc(CNc2ccc(CNc3ncn[nH]3)cc2)c(Cl)c1", "Potency": "inconclusive [inhibitor, partial curve]"}
{"smiles": "CC(Sc1nncn1C)C(=O)Nc1ccccc1-c1ccccc1", "note": "(stereo unspecified)", "Potency": "inactive"}
{"smiles": "CCOc1ccc(OCC)c(NC(=O)CN2CCN(c3cccc(C)c3)CC2)c1", "Potency": "active: 16.4 µM"}
{"smiles": "Cc1ccc(NC2CCCN(C(=O)c3ccccn3)C2)cc1C", "note": "(stereo unspecified)", "Potency": "inactive"}
{"smiles": "CC(C)CNC(=S)N1CCC(C(=O)c2ccc(Cl)cc2)CC1", "Potency": "inconclusive [inhibitor, partial curve, poor fit]"}
{"smiles": "S=C(NCc1ccccc1)NCc1cccc(CNC(=S)NCc2ccccc2)c1", "Potency": "inconclusive [inhibitor, single point]"}
{"smiles": "O=C(CSc1nc2ccccc2[nH]1)Nc1ccc(F)cc1", "Potency": "inactive"}
